The list shows a part of the results. Values were computed here from the reads of four pooled replicates and scatter widely.
target: T1, Pho4 (S. cerevisiae) (UniProt P07270); experiment: relative binding free energy (BET-seq); higher = weaker binding; conditions: reference: library average
T1 sequence: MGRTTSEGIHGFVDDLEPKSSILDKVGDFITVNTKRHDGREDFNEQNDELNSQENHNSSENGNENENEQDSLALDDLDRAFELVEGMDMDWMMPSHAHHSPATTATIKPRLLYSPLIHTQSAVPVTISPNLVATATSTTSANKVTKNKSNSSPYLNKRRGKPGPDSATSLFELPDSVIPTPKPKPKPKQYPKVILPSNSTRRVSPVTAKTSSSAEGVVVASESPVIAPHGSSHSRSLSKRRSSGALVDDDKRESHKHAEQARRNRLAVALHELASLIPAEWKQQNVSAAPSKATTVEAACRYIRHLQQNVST

Sequence | relative binding free energy [kcal/mol]
TTGCGCACGTGTTGCT | -0.11
AATGACACGTGGATGT | -0.07
TTCCGCACGTGAGAGT | 0.32
ATAAGCACGTGGAATG | -0.05
TAGGTCACGTGGTGCC | 0.07
TAAGACACGTGTATGG | -0.03
AAAATCACGTGGTTGT | -0.1
TGTTTCACGTGAAATG | 0.54
GTTGTCACGTGATTGC | 0.32
CTATTCACGTGGAGGG | 0.13
GTATGCACGTGTACTT | 0.08
GTGTCCACGTGAGGTC | 0.32
CTATGCACGTGAGTTG | 0.21
ATATACACGTGGTGGG | -0.09
ATTTGCACGTGGTTCG | 0.04
TGAGCCACGTGGTAAG | -0.05
TGCGTCACGTGGAAGT | 0.12
AATTGCACGTGGCGGT | -0.12
TATTTCACGTGTATCG | 0.15
ACAAGCACGTGGGGGG | -0.27
TGGGGCACGTGGTCTG | -0.11
AAATACACGTGATTTT | 0.23
TAAGTCACGTGTGCGG | 0.09
GTTAGCACGTGTGGCG | 0.15
AGGGGCACGTGAGCGC | -0.01
TGAGGCACGTGCTGGA | -0.17

Sequence | relative binding free energy [kcal/mol]
GTAAGCACGTGGTATG | -0.15
CGAGACACGTGTGGGC | 0.05
TTGGTCACGTGTGCCG | -0.01
CTAGGCACGTGTGCGT | -0.24
TGTGGCACGTGAGGAT | 0.13
TAGGTCACGTGTCAGA | 0.28
TAATTCACGTGCATGT | 0.17
AGTTTCACGTGAACGT | 0.36
GGGTTCACGTGCAATG | 0.27
GAAGTCACGTGGAGGG | 0.07
TGGTTCACGTGGCCGG | 0.19
TGATGCACGTGAGCGA | 0.2
TTCGGCACGTGCAGGT | -0.01
GGTGGCACGTGATGTA | 0.11
AAGATCACGTGATGGG | 0.22
GTGTTCACGTGGCTAA | 0.17
AATTGCACGTGTATGT | -0.03
GTAGTCACGTGGAATT | 0.2
GGTTGCACGTGCCGTT | 0.03
CATGTCACGTGAAATG | 0.31
TAGATCACGTGTGTTA | 0.16
TGCTGCACGTGGTCGT | -0.11
ATGCGCACGTGGGTGA | -0.43
GGTTGCACGTGGATAG | 0.07
GTGGCCACGTGTTGTT | 0
TTATTCACGTGGAATA | 0.36

Sequence | relative binding free energy [kcal/mol]
AATGACACGTGTTTAG | 0.03
ATGGTCACGTGCGTGC | -0.01
GTTTCCACGTGAGGGA | 0.26
GGGTGCACGTGGGAAG | 0
GTTATCACGTGAAGCT | 0.45
GCCGTCACGTGGTGGT | 0.08
TAATACACGTGGGATT | 0.11
CGGGGCACGTGCTGGG | -0.22
TAAAACACGTGGTGGA | -0.06
TTGTGCACGTGTTGTG | 0.01
TTTTGCACGTGTTAGA | 0.12
CGTTTCACGTGTTAGT | 0.26
TTCTACACGTGGAATG | 0.26
TGTGGCACGTGAAGAT | 0.1
TTGTTCACGTGGGACG | 0.21
GTTTTCACGTGGTGTA | 0.26
TGGGGCACGTGTATGC | -0.1
GTCGTCACGTGCGGGA | 0.23
GGAGTCACGTGGTGGT | 0.13
TATTTCACGTGGTATC | 0.13
GGCGTCACGTGAATGT | 0.34
GAGTGCACGTGGTTAC | 0.05
TTCGGCACGTGGTAGG | -0.2
AGGGGCACGTGGGTTG | -0.2
AGTGACACGTGTGTGA | -0.05
AGTTTCACGTGTTGTG | 0.15

Sequence | relative binding free energy [kcal/mol]
GGCTTCACGTGAGGAG | 0.34
GTGGGCACGTGGAGAT | -0.03
GGTTGCACGTGTGGAT | 0.23
GTGCACACGTGTGTGC | 0.1
AATGACACGTGAGGGC | 0.29
TTATGCACGTGCCGTG | -0.01
TAGGTCACGTGGATGT | 0.12
TGTCTCACGTGGGGTA | -0.01
GAGGTCACGTGGGCAT | 0.04
ATGGGCACGTGAGTTG | 0.11
TTGTTCACGTGGATAA | 0.27
TTTTGCACGTGCTCTT | -0.04
TGTGACACGTGAGTTA | 0.18
TGATTCACGTGTGAAA | 0.4
ATTTACACGTGTGCGG | 0.02
AAGGGCACGTGCAGAG | -0.16
TTGCGCACGTGATGCT | 0.06
AGCTTCACGTGTCGGG | 0.23
AATAACACGTGGTATG | -0.17
TTGATCACGTGTGTTG | 0.29
TTGTACACGTGCTCGT | 0.04
TAGTACACGTGTCTGG | 0.05
CTTTACACGTGTTGTT | 0.07
GGAATCACGTGTGTGA | 0.27
TGGTTCACGTGAAAAA | 0.56
GGTGACACGTGTTAGC | 0.09

Sequence | relative binding free energy [kcal/mol]
TAGCTCACGTGCGGGG | 0.08
CATTTCACGTGCATTT | 0.31
TTTGTCACGTGTTTAG | 0.09
AACATCACGTGTGTTT | 0.25
ATGGACACGTGTGGTG | 0.11
TGGATCACGTGTTATA | 0.21
ATATACACGTGGAGGT | -0.03
TGATTCACGTGTGGTT | 0.29
GGGATCACGTGGATGA | 0.06
AATAGCACGTGGTGTA | -0.18
AATAGCACGTGTTCGG | -0.19
GGGCGCACGTGGCTGA | -0.09
GGCGGCACGTGAGTAT | 0.09
AGGCGCACGTGGGGCG | -0.25
TACGGCACGTGGCTTG | -0.13
GTGATCACGTGGCCGG | 0
GAAGGCACGTGTTGAA | 0.12
AGGGACACGTGTATAT | 0.01
ATATGCACGTGGTAAT | -0.16
TGATTCACGTGGCGCG | 0.17
TCTTTCACGTGTTGTT | 0.31
AGATCCACGTGTTGGT | 0.09
TATACCACGTGAGTTG | 0.27
GAGTTCACGTGGTGAG | 0.32
ATGTCCACGTGAGATT | 0.37
TGGTCCACGTGTTGTT | 0.06

Sequence | relative binding free energy [kcal/mol]
ATACTCACGTGGGATT | 0.12
AGCTTCACGTGGTAGG | 0.19
TGATACACGTGTTTTA | -0.01
TACGGCACGTGAGTTG | 0.23
TTCTGCACGTGCTTTG | 0
GTTGCCACGTGTTGGT | 0.04
AAGGGCACGTGGGCTG | -0.34
AAGAACACGTGGTTTT | 0.01
GGATTCACGTGGCTTT | 0.24
TGTTACACGTGAGGGC | 0.3
GGGGCCACGTGACGGG | -0.12
TAGTACACGTGACGGT | 0.17
TGAGTCACGTGTGTCC | 0.22
GGTGTCACGTGTAAAG | 0.23
TTTGCCACGTGAGTGA | 0.12
GCAGTCACGTGGTGGT | -0.01
GGATGCACGTGGAAAT | 0.12
TGTAGCACGTGATGTA | 0.05
AGGATCACGTGGTAGA | 0.18
ACTTGCACGTGTAGTG | 0
GTTAGCACGTGTCCTG | 0.03
GTTGACACGTGGTGGT | 0.05
TTGGTCACGTGTATTT | 0.11
TCGGACACGTGTTTGG | -0.04
TTTTGCACGTGCTGAT | -0.12
TATGACACGTGTCATG | 0.02

Sequence | relative binding free energy [kcal/mol]
TTTTACACGTGAGGTA | 0.26
GAGGCCACGTGTAGGT | 0.06
AACAGCACGTGGTTAG | -0.1
GGAGGCACGTGATTAG | 0.05
TGGTTCACGTGGAATT | 0.56
GGGAACACGTGGCGGC | 0.03
AAAGTCACGTGACGGT | 0.2
GTTATCACGTGTAGAA | 0.29
TTAGTCACGTGCTGAA | 0.11
TTTGACACGTGCTAGT | -0.09
ATACTCACGTGAGGTG | 0.28
AGTGTCACGTGCGTAT | 0.02
TTTTACACGTGTCGAT | 0.1
TTGGCCACGTGTCTGT | -0.11
GGTAACACGTGGTGGG | 0.06
ATGATCACGTGCTAGG | 0.1
TGTGTCACGTGCGGGC | 0.05
TCCATCACGTGTGGTG | 0.28
TGTATCACGTGGGTGT | -0.01
TGGTGCACGTGTAGAC | 0.07
TTTGTCACGTGCTGGT | 0
TGGTGCACGTGCCTGG | -0.06
TTTTGCACGTGGGTCG | -0.08
GTCAGCACGTGGTGTA | -0.04
ACTTGCACGTGTATGT | 0.08
TGTCGCACGTGGTTCT | -0.09

Sequence | relative binding free energy [kcal/mol]
TGCGGCACGTGGTGGG | -0.17
AGGTTCACGTGCGTGG | 0.23
TGTCGCACGTGGATGA | -0.04
ATGAACACGTGTAGTA | 0.11
TGTGACACGTGGTGAC | 0.09
TATTGCACGTGTTGCT | -0.02
AGGGGCACGTGCGTCT | -0.25
TGGCCCACGTGTGGTT | 0.01
AGAAGCACGTGGGGCC | -0.08
GGTCGCACGTGTGATA | 0.13
GGATGCACGTGTAGTC | 0.09
TCATGCACGTGTTTTG | 0.03
GGTTTCACGTGGATCT | 0.21
GTGTACACGTGTAGGA | 0.16
GGTTACACGTGTTAGC | 0.24
GTAAGCACGTGGAGCG | -0.08
ATGGTCACGTGATATA | 0.13
TCGATCACGTGTGGTA | 0.13
AGGGCCACGTGTGGCT | -0.03
TGGGCCACGTGTACTG | 0
GGTGTCACGTGCGTGT | 0.01
GTGCACACGTGATTTT | 0.26
GATAACACGTGTTATT | -0.01
TTTTACACGTGGCATG | 0.05
CGTGTCACGTGACGTG | 0.06
GCCGGCACGTGGTGCG | -0.12

Sequence | relative binding free energy [kcal/mol]
TTTAACACGTGTGGTG | 0.05
AGAAGCACGTGGGGGT | -0.21
TTGGTCACGTGATGCA | 0.12
CAAGTCACGTGAGTAG | 0.32
CATGGCACGTGGATAG | 0.11
GGGACCACGTGTTGTT | 0.05
TTTGACACGTGTGAGC | 0.09
ATGTTCACGTGGTAAG | 0.25
TTATACACGTGTATGC | 0.03
TCTTTCACGTGTATGT | 0.21
TAGAGCACGTGTTTGG | -0.05
GGTAGCACGTGTGAGA | -0.01
GGGGACACGTGGATAT | 0.04
AGTCTCACGTGATGTT | 0.29
TTGAACACGTGGTAGG | -0.04
GAGTGCACGTGTGAGG | 0.19
ATGTGCACGTGTTCGG | 0.02
GTATCCACGTGTTGTT | 0.13
GGTTACACGTGGTCAG | 0.13
GTTGTCACGTGGTTGA | 0.17
TGAATCACGTGGAGGA | 0.12
GTGAACACGTGTGTTT | -0.02

Reference: the BET-seq Pho4 binding data (Le et al. 2018)
